US12138316B2, “Anti-B7H3 antibody-drug conjugate and use thereof” (Duality Biologics (Suzhou) Co., Ltd., priority 2023, dated 2024)

Columns and labels:
[1] = pI (summary of analysis data); assay type: physicochemical
human B7H3 = molecular target: T1, human B7H3 (Homo sapiens, UniProt Q5ZPR3); assay: FACS binding to human B7H3-expressing cells MCF-7
T1 construct: MCF-7 cells expressing human full-length B7H3; host or cells: MCF-7
T1 sequence (Q5ZPR3 29-534): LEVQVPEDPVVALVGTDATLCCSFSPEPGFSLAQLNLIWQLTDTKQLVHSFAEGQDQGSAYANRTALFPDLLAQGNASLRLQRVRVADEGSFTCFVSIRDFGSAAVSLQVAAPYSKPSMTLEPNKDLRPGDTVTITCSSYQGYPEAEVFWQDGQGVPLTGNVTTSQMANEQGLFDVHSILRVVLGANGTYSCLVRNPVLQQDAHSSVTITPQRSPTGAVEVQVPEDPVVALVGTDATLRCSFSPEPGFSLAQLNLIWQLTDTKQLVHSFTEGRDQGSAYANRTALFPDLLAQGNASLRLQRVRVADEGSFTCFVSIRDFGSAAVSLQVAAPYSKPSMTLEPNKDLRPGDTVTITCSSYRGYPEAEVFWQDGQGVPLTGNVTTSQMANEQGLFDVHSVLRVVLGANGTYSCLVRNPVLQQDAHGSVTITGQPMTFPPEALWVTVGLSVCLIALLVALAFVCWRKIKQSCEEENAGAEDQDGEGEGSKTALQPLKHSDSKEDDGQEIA
Description: (§1) FACS was used to detect the binding of antibodies to human B7H3. This method allows quantitative analysis and identification of specific molecules expressed on the surface of living cells. Unlabeled cells were used as a control to set a threshold before the assay, and the percentage change for each group that exceeded the fluorescence intensity threshold was analyzed. MCF-7 cells expressing human full-length B7H3 (1×10^5 cells/well) were incubated with various concentrations of antibodies (3.16-fold serially diluted with 1×DPBS/1% BSA from 50 nM to 0.0005 nM) in a volume of 100 μL/well in a refrigerator set to 4° C. for 1 h. Anti-human B7H3 reference antibody enoblituzumab (MacroGeneics) was used as a positive control. Human IgG1 isotype antibody was used as a negative control. After washing the cells with 1×DPBS/1% BSA, Alexa 647 goat anti-human antibody (diluted in a 1:500 ratio in 1×DPBS/1% BSA) was added. The cells were incubated in a refrigerator set to 4° C. for 0.5 h in the dark. The mean fluorescence intensity (MFI) of the cells was measured by a flow cytometry and analyzed by FlowJo. EC50 values were calculated by four-parameter non-linear regression analysis using GraphPad Prism 7 software.

human 4IgB7H3 = molecular target: T2, human 4IgB7H3 (Homo sapiens, UniProt Q5ZPR3); assay: Binding affinity for human 4IgB7H3 (SPR)
T2 construct: Uniprot ID: Q5ZPR3, amino acids 29-461; made in house; host or cells: Expi293F
T2 sequence (Q5ZPR3 29-461): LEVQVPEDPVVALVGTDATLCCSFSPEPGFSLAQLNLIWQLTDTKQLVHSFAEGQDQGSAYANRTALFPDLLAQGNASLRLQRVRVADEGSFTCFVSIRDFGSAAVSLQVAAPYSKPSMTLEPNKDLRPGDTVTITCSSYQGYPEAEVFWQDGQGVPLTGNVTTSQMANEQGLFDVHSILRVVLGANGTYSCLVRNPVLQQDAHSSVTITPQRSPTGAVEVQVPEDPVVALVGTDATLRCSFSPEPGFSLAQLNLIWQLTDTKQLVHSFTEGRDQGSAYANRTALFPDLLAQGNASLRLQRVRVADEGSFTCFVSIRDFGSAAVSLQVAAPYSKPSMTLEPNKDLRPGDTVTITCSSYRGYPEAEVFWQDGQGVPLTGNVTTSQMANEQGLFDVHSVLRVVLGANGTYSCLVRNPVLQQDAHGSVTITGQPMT
Description: (§2) The affinity of antibodies for human 4IgB7H3 was determined using surface plasmon resonance (SPR). The affinity of antibodies for human 4IgB7H3 was determined by Biacore 8K. An activator was prepared by mixing 400 mM EDC and 100 mM NHS (GE) immediately prior to injection into the channel. The CM5 sensor chip was activated for 420 seconds with the activator. Goat anti-human Fc IgG (30 μg/mL in 10 mM NaAc, pH 4.5) was then injected into the channel at a flow rate of 10 μL/min for 420 seconds. The chip was deactivated by 1 M ethanolamine hydrochloric acid. The antibodies diluted in running buffer (1×HBS-EP+) were injected into the channel at a flow rate of 10 μL/min for 30 seconds. Seven concentrations (100 nM, 50 nM, 25 nM, 12.5 nM, 6.25 nM, 2.125 nM, and 1.563 nM) of analyte human 4IgB7H3 were injected sequentially into the channel at a flow rate of 30 μL/min for an association phase of 180 seconds, followed by dissociation of 3600 seconds. Glycine (10 mM, pH 1.5) was injected as regeneration buffer after the dissociation phase.
(§3) The sensorgrams for the reference channel and the buffer channel were subtracted from the test sensorgrams. The experimental data were fitted with a 1:1 binding model. The molecular weight of the human 4IgB7H3 used in the calculation was 47.8 kDa.

human 2IgB7H3 = molecular target: T3, human 2IgB7H3 (Homo sapiens, UniProt Q5ZPR3); assay: Binding affinity for human 2IgB7H3 (SPR)
T3 construct: His tag; purchased ACROBiosystems B73-H52E2
T3 sequence (Q5ZPR3 29-316 isoform Q5ZPR3-2 limits assumed): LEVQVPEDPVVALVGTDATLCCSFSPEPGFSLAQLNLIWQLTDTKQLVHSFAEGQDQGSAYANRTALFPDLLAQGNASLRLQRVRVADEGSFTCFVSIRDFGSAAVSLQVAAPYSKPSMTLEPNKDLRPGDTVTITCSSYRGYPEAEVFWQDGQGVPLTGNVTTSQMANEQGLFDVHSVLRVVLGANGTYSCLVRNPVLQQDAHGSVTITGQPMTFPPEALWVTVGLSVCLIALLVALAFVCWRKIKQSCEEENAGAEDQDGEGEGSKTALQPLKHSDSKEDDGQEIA
Description: The affinity of antibodies for human 2IgB7H3 was determined using surface plasmon resonance (SPR). The affinity of antibodies for human 2IgB7H3 was determined by Biacore 8K. An activator was prepared by mixing 400 mM EDC and 100 mM NHS (GE) immediately prior to injection into the channel. The CM5 sensor chip was activated for 420 seconds with the activator. Goat anti-human Fc IgG (30 μg/mL in 10 mM NaAc, pH 4.5) was then injected into the channel at a flow rate of 10 μL/min for 420 seconds. The chip was deactivated by 1 M ethanolamine hydrochloric acid. The antibodies diluted in running buffer (1×HBS-EP+) were injected into the channel at a flow rate of 10 μL/min for 30 seconds. Seven concentrations (500 nM, 250 nM, 125 nM, 62.5 nM, 31.25 nM, 15.625 nM, and 7.813 nM) of analyte human 2IgB7H3 were injected sequentially into the channel at a flow rate of 30 μL/min for an association phase of 120 seconds, followed by dissociation of 300 seconds. Glycine (10 mM, pH 1.5) was injected as regeneration buffer after the dissociation phase.
The sensorgrams for the reference channel and the buffer channel were subtracted from the test sensorgrams. The experimental data were fitted with a 1:1 binding model. The molecular weight of the human 2IgB7H3 used in the calculation was 25.2 kDa.

[2] = Thermal stability (Tm) determined by DSF; assay type: physicochemical; conditions: Tm1
Description: Tm (melting temperature) of each antibody was investigated using QuantStudio® 7 Flex real-time PCR system (Applied Biosystems). 19 μL of the antibody solution in Example 1.2 was mixed with 1 μL of SYPRO Orange solution (Invitrogen) and transferred to a 96-well plate (Applied Biosystems). The plate was sealed with an optical adhesive film (Applied Biosystems) and centrifuged at 3,000 rpm for 5 min to remove any air bubbles. The plate was heated from 26° C. to 95° C. at a rate of 0.9° C./min, and the resulting fluorescence data were collected. The negative derivatives of the fluorescence changes with respect to different temperatures were calculated, and the maximum value was defined as the melting temperature Tm. If a protein has multiple unfolding transitions, the first Tm were reported and designated Tm1. Data collection and Tm calculation were performed automatically by QuantStudio® real-time PCR software (v1.3).

cynomolgus monkey B7H3 [3] = assay: FACS binding to cynomolgus monkey B7H3-transfected stable cell pool
Description: as §1, with “to cynomolgus monkey” for “to human”, “B7H3. FlpinCHO” for “B7H3. This method allows quantitative analysis and identification of specific molecules expressed on the surface of living cells. Unlabeled”, “were transfected with cynomolgus monkey B7H3 (W3XX088-FlpinCHO.cProl.pool) (1×10^5 cells/well),” for “were used as a control to set a threshold before the assay,”, “the transfected” for “the percentage change for each group that exceeded the fluorescence intensity threshold was analyzed. MCF-7”, “cells” for “cells expressing human full-length B7H3 (1×10^5 cells/well)”

cynomolgus monkey B7H3 [4] = assay: Binding affinity for cynomolgus monkey B7H3 (SPR)
Description: as §2, with “cynomolgus monkey B7H3” for “human 4IgB7H3”, “Seven concentrations (100 nM, 50 nM, 25 nM, 12.5 nM, 6.25 nM, 2.125 nM, and 1.563 nM) of analyte human 4IgB7H3 were injected sequentially into the channel at a flow rate of 30 μL/min for an association phase of 180 seconds, followed by dissociation of 3600 seconds.” left out
as §3, with “data for 6 analyte concentrations (50 nM, 25 nM, 12.5 nM, 6.25 nM, 3.125 nM, and 1.563 nM)” for “data”, “cynomolgus monkey B7H3” for “human 4IgB7H3”, “49” for “47.8”

[5] = system: human B7H3-expressing cells MCF-7; assay: Internalization test (HCS) in MCF-7 cells; assay type: cell-based
Description: Antibody internalization was determined by operetta CLS (PerkinElmer), a high-content imaging and analysis system that can collect and analyze images of samples at high speed and high sensitivity. MCF-7 cells expressing human full-length B7H3 (1.5×10^4 cells/well) were seeded into a 96-well clear bottom black plate pre-coated with 8 μg/mL poly-D-lysine. After incubation in an incubator set to 37° C., 5% CO2 overnight, various concentrations of the antibodies (3.16-fold serially diluted with 1×DPBS/1% BSA from 50 nM to 0.0005 nM) were incubated in a volume of 100 μL/well in a refrigerator set to 4° C. for 2 h. Anti-human B7H3 reference antibody enoblituzumab (MacroGeneics) was used as a positive control. Human IgG1 isotype antibody was used as a negative control. After washing the cells with 1×DPBS/1% BSA, Alexa 647 goat anti-human antibody (diluted in a 1:500 ratio in 1×DPBS/1% BSA) was added. The cells were incubated in a refrigerator set to 4° C. for 1 h in the dark. The cells were then washed once and resuspended in 1×DPBS/1% BSA at 37° C. for 2 h. […] The mean fluorescence intensity (MFI) of the cells was measured and analyzed by operetta CLS. EC50 values were calculated by four-parameter non-linear regression analysis using GraphPad Prism 7 software.

- Maximum MFI (human B7H3): 19900
- ka (human 4IgB7H3): 657000 M⁻¹ s⁻¹
- kd (dissociation rate constant) (human 4IgB7H3): 4.65e-05 s⁻¹
- ka (human 2IgB7H3): 303000 M⁻¹ s⁻¹
- kd (dissociation rate constant) (human 2IgB7H3): 0.0141 s⁻¹
- ka (cynomolgus monkey B7H3 [4]): 527000 M⁻¹ s⁻¹
- kd (dissociation rate constant) (cynomolgus monkey B7H3 [4]): 3.02e-05 s⁻¹
B1: W301088-1.145.16-z3-p1-uIgG1KV320: humanized anti-B7H3 IgG1 antibody, heavy chain SEQ ID NO: 12, light chain SEQ ID NO: 13 (antibody)
heavy: QVQLQESGPGLVKPSQTLSLTCTVTDYSITGDYAWNWIRQHPGKGLEWIGYISYSGSTSYNPSLQSRVTISRDTSKNQFSLKLSSVTAADTAVYFCARSLGRRWYFVVWGQGTTVTVSSASTKGPSVFPLAPSSKSTSGGTAALGCLVKDYFPEPVTVSWNSGALTSGVHTFPAVLQSSGLYSLSSVVTVPSSSLGTQTYICNVNHKPSNTKVDKRV[not shown - human IgG1 Fc with changes]
light: DIVMTQSPDSLAVSLGERATINCKSSQSLLQSSNQKNYLAWYQQKPGQPPKLLIYFASTRESGVPDRFSGSGSGTDFTLTISSLQAEDVAVYYCQQHYSAPWTFGGGTKVEIKRTVAAPSVFIFPPSDEQLKSGTASVVCLLNNFYPREAKVQWKVDNALQSGNSQESVTEQDSKDSTYSLSSTLTLSKADYEKHKVYACEVTHQGLSSPVTKSFNRGEC
- pI [1]: 8.54
- Tm (° C.) [2]: 70.1 °C
- Maximum MFI (cynomolgus monkey B7H3 [3]): 63600
- Antibody internalization Maximum MFI [5]: 52315
